From PubChem BioAssay (Tox21)
Where “and” joins values, the source holds several entries; their conditions need not be identical. Equal values may be shown once. Inconclusive means that the source gave no clear call. Such entries were picked first, then a sample of the others. A potency beside an inconclusive call is a rough fit, not a confirmed value. Calls of active or inactive are those of the source. Calls come from the whole dose curve; as a rule, active = well fitted inhibition curve with a large enough effect in the signal ratio in the repeat runs (not every such curve was filed as active); inconclusive = weak or mixed curves, or effect the other way; inactive = no such curve, though single readings can be large or run the other way; the % refers to the signal ratio.

target: Glucocorticoid receptor (Homo sapiens) (UniProt P04150); assay: qHTS assay to identify small molecule antagonists of the glucocorticoid receptor (GR) signaling pathway (AID 720692); conditions: GR-bla HeLa, beta-lactamase FRET ratio, dexamethasone-stimulated, 18 h; activity change, negative = inhibition: at 58.5 µM (top of the series) unless noted
Sequence of UniProt P04150 (P04150 whole entry, looked up): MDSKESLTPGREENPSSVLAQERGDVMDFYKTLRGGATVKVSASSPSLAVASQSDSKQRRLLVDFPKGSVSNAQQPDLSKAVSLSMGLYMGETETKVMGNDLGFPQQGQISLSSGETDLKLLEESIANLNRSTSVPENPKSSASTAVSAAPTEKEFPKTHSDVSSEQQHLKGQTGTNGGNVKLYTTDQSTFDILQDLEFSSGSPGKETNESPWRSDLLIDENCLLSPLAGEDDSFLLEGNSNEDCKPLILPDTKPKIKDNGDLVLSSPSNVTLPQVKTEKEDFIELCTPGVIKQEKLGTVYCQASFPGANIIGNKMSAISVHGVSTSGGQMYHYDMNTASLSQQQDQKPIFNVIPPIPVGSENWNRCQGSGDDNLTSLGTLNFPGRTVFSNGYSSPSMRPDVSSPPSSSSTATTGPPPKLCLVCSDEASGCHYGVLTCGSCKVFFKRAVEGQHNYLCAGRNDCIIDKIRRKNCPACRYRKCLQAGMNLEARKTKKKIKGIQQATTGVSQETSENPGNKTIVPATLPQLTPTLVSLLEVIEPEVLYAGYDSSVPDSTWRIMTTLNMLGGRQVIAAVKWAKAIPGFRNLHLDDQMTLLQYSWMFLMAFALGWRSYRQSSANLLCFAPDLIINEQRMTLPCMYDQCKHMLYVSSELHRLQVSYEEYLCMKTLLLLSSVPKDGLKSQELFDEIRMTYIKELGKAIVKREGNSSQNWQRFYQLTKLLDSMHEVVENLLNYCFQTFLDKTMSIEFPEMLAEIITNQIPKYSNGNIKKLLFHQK
Description: U.S. Tox21 Program National Center for Advancing Translational Sciences [NCATS] NIH Chemical Genomics Center [NCGC] U.S. Environmental Protection Agency [EPA] National Institutes of Environmental Health Sciences [NIEHS] National Toxicology Program [NTP] U.S. Food and Drug Administration [FDA] Tox21 Assay Overview: The Glucocorticoid receptor (GR) is one of the members of the nuclear receptor family of ligand-dependent transcription factors. GR plays a critical role in carbohydrate, protein and lipid metabolisms and programmed cell death. CellSensor GR-bla HeLa cell line (Invitrogen) contains a beta-lactamase reporter gene under the control of the glucocorticoid response element stably integrated into HeLa cells, a cervical cancer cell line that expresses glucocorticoid receptor. The activation of the reporter gene under culture conditions can be detected by fluorescence intensity. This cell line has been used to screen the Tox21 10K compound library and to identify the compounds that inhibit the GR signaling.
Tox21 Assay Protocol Summary: The GR-bla HeLa cells were dispensed at 1500 cells/5 ul/well in 1536-well black wall/clear bottom plates using a Multidrop Combi (ThermoFisher Scientific, Waltham, MA) dispenser. After the assay plates were incubated at a 37 C/5% CO2 incubator for 4 hours, 23 nL of compounds dissolved in DMSO, positive controls or DMSO only was transferred to the assay plate by a pintool station (Kalypsys, San Diego, CA), followed by addition of 1 uL of dexamethasone (5 nM, final concentration in the well). The plates were incubated at 37 C for 18 hours. After 1 uL of LiveBLAzerTM B/G FRET substrate was added using a Flying Reagent Dispenser (Aurora Discovery, San Diego, CA), the plates were incubated at room temperature for 2 hours, and fluorescence intensity was measured by an Envision plate reader (PerkinElmer, Shelton, CT).
% is set by controls: 0 for no effect and ±100 for the full control effect; potency is the fitted concentration of half-maximal effect; tags give direction and shape of the fitted curve or compound fluorescence and quenching.

Row | SMILES | Potency | activity change, negative = inhibition
1 | CN1C(=O)[C@@H](NC(=O)c2cc3ccccc3[nH]2)N=C(c2ccccc2)c2ccccc21 | inconclusive: 21.3 µM [cytotoxic] | –
2 | CC(=O)O[C@H]1CC[C@@]2(C)C(=CC[C@@H]3[C@@H]2CC[C@]2(C)C(=O)CC[C@@H]32)C1 | inconclusive: 43.6 µM [cytotoxic, partial curve] | –
3 | C#CCOS(=O)OC1CCCCC1Oc1ccc(C(C)(C)C)cc1 (stereo not given) | active: 43.7 µM and inconclusive: 4.9 µM [inhibitor, full curve] | –
4 | CN1CCC(O)(c2ccc(F)cc2)C(C(=O)c2ccc(F)cc2)C1 (stereo not given) | – | inconclusive: -21.7%
5 | CN1C[C@H](C(=O)N[C@]2(C)O[C@@]3(O)[C@@H]4CCCN4C(=O)[C@H](Cc4ccccc4)N3C2=O)C=C2c3cccc4[nH]cc(c34)C[C@H]21 | inconclusive: 21.3 µM and inconclusive: 49.2 µM [cytotoxic, partial curve] | inconclusive: -0.293% [at 27 µM]
6 | CCCCCCC[CH2][Sn]([Cl])([Cl])[CH2]CCCCCCC | inconclusive: 54.9 µM [cytotoxic, single point] | –
7 | COc1ccc2[nH]cc(CCN(C(C)C)C(C)C)c2c1 | inconclusive: 25.2 µM [activator] | –
8 | CC(=O)[O][Hg][c]1ccccc1 | inconclusive: 1.9 µM [cytotoxic, full curve] and inconclusive: 3.86 µM [cytotoxic, partial curve] and inconclusive: 6.92 µM [cytotoxic, partial curve] | –
9 | CC(C)CC(C)Nc1ccc(Nc2ccccc2)cc1 (stereo not given) | inconclusive: 48.2 µM [cytotoxic, partial curve] | –
10 | N#CN=C1SCCN1Cc1ccc(Cl)nc1 | inactive | –
11 | Clc1ccc(C(c2ccc(Cl)cc2)C(Cl)Cl)cc1 | active: 24.9 µM and inconclusive: 61.6 µM [cytotoxic, partial curve, poor fit] | –
12 | COP(=S)(NC(C)C)Oc1ccc(C)cc1[N+](=O)[O-] (stereo not given) | – | inconclusive: -28.9%
13 | CCC(C)(C)C(=O)OC1=C(c2ccc(Cl)cc2Cl)C(=O)OC12CCCCC2 | – | inconclusive: -7.21%
14 | CCCCCCCCCC[N+](C)(C)CCCCCCCCCC | inconclusive: 26.8 µM [cytotoxic, single point] and inconclusive: 49 µM [cytotoxic, partial curve] | –
15 | O=C(O)c1c(Cl)ccc2cc(Cl)cnc12 | inconclusive: 5.49 µM [activator, single point] | –
16 | CC(C)(C)c1cc(O)ccc1O | inconclusive: 23.9 µM [cytotoxic] and inconclusive: 87.1 µM [inhibitor, single point] and inconclusive: 155 nM [inhibitor, full curve, poor fit] | –
17 | O=c1[nH]c2ccccc2n1C1CCN(CCCC(c2ccc(F)cc2)c2ccc(F)cc2)CC1 | inconclusive: 26.8 µM [cytotoxic, single point] and inconclusive: 13.8 µM [cytotoxic, partial curve, poor fit] | –

Row | SMILES | Potency | activity change, negative = inhibition
18 | COP(=O)(O)OC | inactive | –
19 | CN(C)[C@@H]1C(=O)C(C(N)=O)=C(O)[C@@]2(O)C(=O)C3=C(O)c4c(O)cccc4[C@@](C)(O)[C@H]3C[C@@H]12 | inconclusive: 24.5 µM [activator, partial curve, poor fit] | inconclusive: 29.1% [at 78.9 µM]
20 | CC(c1ccc(O)cc1)(c1ccc(O)cc1)c1ccc(O)cc1 | active: 19.5 µM | –
21 | CCCCCCCCCCCCCCn1cc[n+](C)c1 | inconclusive: 13.8 µM [cytotoxic, full curve] and inconclusive: 54.4 µM [cytotoxic, single point] | inconclusive: 10.4%
22 | CCCCCCCc1ccc(O)cc1 | inconclusive: 61.7 µM [cytotoxic, single point] | –
23 | N#Cc1sc2c(=O)c3ccccc3c(=O)c=2sc1C#N | inconclusive: 49 µM [cytotoxic, partial curve] | –
24 | O=c1ssc(Cl)c1Cl | active: 43.6 µM | –
25 | CC(=O)/C=C/c1ccccc1 | – | inconclusive: 16.2%
26 | CCC(C)(C)c1ccc(O)cc1 | – | inconclusive: 3.99% [at 78.9 µM]
27 | CC(C)C1CCC(Cc2ccc(Cl)cc2)C1(O)Cn1cncn1 (stereo not given) | inconclusive: 54.4 µM [cytotoxic, single point] | –
28 | CCCCCCCCCCCCCCC(Br)C(=O)O (stereo not given) | inconclusive: 54.9 µM [cytotoxic] | –
29 | O=C1C(I)=CC(=C(c2cc(I)c(O)c(I)c2)c2ccccc2C(=O)O)C=C1I | active: 16.9 µM and active: 8.49 µM | –
30 | C[C@]12CC[C@H](O)CC1=CC[C@@H]1[C@@H]2CC[C@]2(C)C(=O)CC[C@@H]12 | active: 43.7 µM and active: 43.6 µM | –
31 | CCOP(=S)(OCC)Oc1nc(Cl)c(Cl)cc1Cl | inactive | –
32 | CCC[CH2][Sn]([Cl])([Cl])[CH2]CCC | inconclusive: 15.7 µM [cytotoxic, partial curve] and inconclusive: 21.9 µM [cytotoxic, partial curve] | –
33 | C[CH2][Hg][S]c1ccccc1C(=O)O | inconclusive: 19 µM [cytotoxic, partial curve, poor fit] and inconclusive: 43.6 µM [cytotoxic] | –

same assay, conditions: GR-bla HeLa, beta-lactamase FRET ratio, dexamethasone-stimulated, 18 h; at 27 µM (top of the series)

Row | SMILES | activity change, negative = inhibition
34 | CN(C)[C@@H]1C(=O)C(C(N)=O)=C(O)[C@@]2(O)C(=O)C3=C(O)c4c(O)cccc4[C@@](C)(O)[C@H]3C[C@@H]12 | inactive: -1.2%

same assay, conditions: GR-bla HeLa, beta-lactamase FRET ratio, dexamethasone-stimulated, 18 h; at 58.5 µM (top of the series)

Row | SMILES | activity change, negative = inhibition
35 | CCC(C)(C)c1ccc(O)cc1 | inactive: -2.26% and inactive: 2.53%
36 | COP(=O)(OC)C(O)C(Cl)(Cl)Cl (stereo not given) | inconclusive: -10.7%

same assay, conditions: GR-bla HeLa, beta-lactamase FRET ratio, dexamethasone-stimulated, 18 h; at 78.9 µM (top of the series)

Row | SMILES | activity change, negative = inhibition
37 | COP(=O)(OC)C(O)C(Cl)(Cl)Cl (stereo not given) | inconclusive: 2.06%
